{
  "source": "PubChem BioAssay (Tox21)",
  "note": "Values joined by “and” are separate entries in the source; they are usually repeats but may differ in a detail not shown here. Equal values may be shown once. This list was built around the results that the source calls inconclusive (neither active nor inactive); the mix of calls is not that of the screen. Potencies of inconclusive entries are doubtful fits and often do not repeat. Active and inactive are the calls of the source. Calls come from the whole dose curve; as a rule, active = well fitted cell-killing curve with a large enough effect in the repeat runs; inconclusive = weak or mixed curves; inactive = no such curve, though single readings can be large or run the other way. % is set by controls: 0 for no effect and ±100 for the full control effect; potency is the fitted concentration of half-maximal effect; tags give direction and shape of the fitted curve.",
  "data": [
    {"assay": "qHTS assay for identifying genotoxic compounds that show differential cytotoxicity against isogenic chicken DT40 cell lines with known DNA damage response pathways - Rad54/Ku70 mutant cell line (AID 743015); note: nearly all actives have a fitted effect of over 60% in size", "details": "DT40 Rad54/Ku70 mutant viability, CellTiter-Glo, 40 h; activity change, negative = cytotoxicity: at 66.8 µM (top of the series)", "values": [
      {"smiles": "O=C(CCCN1CCC2(CC1)C(=O)NCN2c1ccccc1)c1ccc(F)cc1", "Potency": "inconclusive: 33.5 µM [cytotoxic, single point]"},
      {"smiles": "O=C(O)COc1nc(Cl)c(Cl)cc1Cl", "Potency": "inconclusive: 62.6 µM"},
      {"smiles": "COP(=O)(OC)SCn1c(=O)oc2cc(Cl)cnc21", "Potency": "inconclusive: 68.6 µM [cytotoxic, single point]"},
      {"smiles": "COc1cc(OC)c(OC)cc1C=O", "Potency": "inconclusive: 37.4 µM [rising, partial curve, poor fit]"},
      {"smiles": "Clc1ccc(C(c2ccccc2Cl)C(Cl)(Cl)Cl)cc1", "note": "(stereo not drawn)", "Potency": "inconclusive: 69 µM [cytotoxic, single point]"},
      {"smiles": "c1ccc2c(c1)[nH]c1cnccc12", "Potency": "inconclusive: 77 µM [cytotoxic, single point]"},
      {"smiles": "CCOC(=O)COc1cc(-c2nn(C)c(OC(F)F)c2Cl)c(F)cc1Cl", "Potency": "active: 43.3 µM"},
      {"smiles": "Clc1ccc(C(Cl)(Cl)Cl)c(Cl)c1", "activity change, negative = cytotoxicity": "inactive: 10.4% [at 95.1 µM]"},
      {"smiles": "CC(C)=CCOc1c2occc2cc2ccc(=O)oc12", "Potency": "inconclusive: 33.5 µM [cytotoxic, single point]"},
      {"smiles": "CCN(N=O)C(N)=O", "activity change, negative = cytotoxicity": "inconclusive: -43.1%"},
      {"smiles": "O=S1OCC2C(CO1)C1(Cl)C(Cl)=C(Cl)C2(Cl)C1(Cl)Cl", "note": "(stereo not drawn)", "Potency": "active: 48.6 µM and active: 48.5 µM"}
    ]},
    {"assay": "qHTS assay to identify small molecule antagonists of the androgen receptor (AR) signaling pathway - cell viability counter screen (AID 743033; note: nearly all actives have a fitted effect of over 45% in size)", "details": "AR-bla HEK293 viability, CellTiter-Glo luminescence, 16 h; activity change, negative = cytotoxicity: at 58.5 µM (top of the series)", "values": [
      {"smiles": "C[C@H]1O[C@@H](O[C@H]2[C@@H](O)C[C@H](O[C@H]3[C@@H](O)C[C@H](O[C@H]4CC[C@@]5(C)[C@H](CC[C@@H]6[C@@H]5CC[C@]5(C)[C@@H](C7=CC(=O)OC7)CC[C@]65O)C4)O[C@@H]3C)O[C@@H]2C)C[C@H](O)[C@@H]1O", "Potency": "active: 95.2 nM and active: 22 nM"},
      {"smiles": "O=C(CCCN1CCC2(CC1)C(=O)NCN2c1ccccc1)c1ccc(F)cc1", "Potency": "inconclusive: 0.003 µM [cytotoxic, full curve, poor fit]"},
      {"smiles": "O=C(O)COc1nc(Cl)c(Cl)cc1Cl", "Potency": "inconclusive: 21.9 µM [cytotoxic, single point]"},
      {"smiles": "COP(=O)(OC)SCn1c(=O)oc2cc(Cl)cnc21", "activity change, negative = cytotoxicity": "inactive: -17.3%"},
      {"smiles": "O=C1C(Cl)=C(Cl)C(=O)c2ccccc21", "Potency": "active: 4.91 µM and active: 7.76 µM"},
      {"smiles": "COc1cccc(C(=O)CCN[C@@H](C)[C@H](O)c2ccccc2)c1", "activity change, negative = cytotoxicity": "inactive: 1.41%"},
      {"smiles": "COc1cc(OC)c(OC)cc1C=O", "Potency": "inconclusive: 59.8 µM [cytotoxic, single point]"},
      {"smiles": "O=P(O)(O)CN(CP(=O)(O)O)CP(=O)(O)O", "activity change, negative = cytotoxicity": "inactive: -1.44% [at 27 µM]"},
      {"smiles": "Clc1ccc(C(c2ccccc2Cl)C(Cl)(Cl)Cl)cc1", "note": "(stereo not drawn)", "Potency": "inconclusive: 55.3 µM [cytotoxic]"},
      {"smiles": "CNP(=O)(OC)Oc1ccc(C(C)(C)C)cc1Cl", "note": "(stereo not drawn)", "Potency": "inconclusive: 61.6 µM [cytotoxic, partial curve, poor fit]"},
      {"smiles": "CCCOCC(=Nc1ccc(Cl)cc1C(F)(F)F)n1ccnc1", "Potency": "active: 12.3 µM"},
      {"smiles": "N#CC(C#N)=NNc1cccc(Cl)c1", "Potency": "active: 2.45 µM"},
      {"smiles": "O=S1OC[C@@H]2[C@H](CO1)[C@]1(Cl)C(Cl)=C(Cl)[C@@]2(Cl)C1(Cl)Cl", "note": "(stereo partly drawn)", "Potency": "inconclusive: 61.6 µM [cytotoxic]"},
      {"smiles": "CN1CCc2cc(Cl)c(O)cc2[C@H]2c3ccccc3CC[C@@H]21", "activity change, negative = cytotoxicity": "inactive: -2.65%"},
      {"smiles": "CCOP(=O)(OCC)Oc1nc(Cl)c(Cl)cc1Cl", "activity change, negative = cytotoxicity": "inactive: -17.3%"},
      {"smiles": "CC(=O)[O][Sn]([c]1ccccc1)([c]1ccccc1)[c]1ccccc1", "Potency": "active: 0.245 µM"},
      {"smiles": "O=S1OCC2C(CO1)C1(Cl)C(Cl)=C(Cl)C2(Cl)C1(Cl)Cl", "note": "(stereo not drawn)", "Potency": "active: 49 µM and inconclusive: 61.6 µM [cytotoxic, single point]"}
    ]}
  ]
}
